Enrichment ratio data for 153 variants are collected here from a collection of fitness landscapes (doi:10.1126/science.1257360).

B1: PhoQ; a variant is named by its letters at X, in order, P23837 (parent)
chain: MKKLLRLFFPLSLRVRFLLATAAVVLVLSLAYGMVALIGYSVSFDKTTFRLLRGESNLFYTLAKWENNKLHVELPENIDKQSPTMTLIYDENGQLLWAQRDVPWLMKMIQPDWLKSNGFHEIEADVNDTSLLLSGDHSIQQQLQEVREDDDDAEMTHSVAVNVYPATSRMPKLTIVVVDTIPVELKSSYMVWSWFIYVLSANLLLVIPLLWVAAWWSLRPIEALAKEVRELEEHNRELLNPATTRELTSLVRNLNRLLKSERERYDKYRTTLTDLTHSLKTPLXXLQXXLRSLRSEKMSVSDAEPVMLEQISRISQQIGYYLHRASMRGGTLLSRELHPVAPLLDNLTSALNKVYQRKGVNISLDISPEISFVGEQNDFVEVMGNVLDNACKYCLEFVEISARQTDEHLYIVVEDDGPGIPLSKREVIFDRGQRVDTLRPGQGVGLAVAREITEQYEGKIVAGESMLGGARMEVIFGRQHSAPKDE

Some of the results follow.

In the assay the parent is B1. As to the kind of experiment: enrichment ratio after two sorts for PhoP signalling (ratio (wild type AVST 3.29)); higher = more functional. Particulars: with PhoP (E. coli).
With PRTS, the enrichment ratio is at most 0.25.
With SRIS, the enrichment ratio is at most 0.25.
The figure for SNIS is 1.26; for QYIP it is at most 0.25.
Take ACYM: the enrichment ratio is 0.253.
Next, EYYP: at most 0.25; HHPC: at most 0.25.
Next, YRRE: at most 0.25; FTLH: 4.51; IDVE: at most 0.25.
Turning to IAVI, the enrichment ratio is at most 0.25.
The figure for KSQL is at most 0.25; for THEL it is at most 0.25.
MECC: the enrichment ratio is 14.4.
In the case of DFAM, the enrichment ratio is at most 0.25.
With QFRF, the enrichment ratio was at most 0.25.
Next, VQPI: at most 0.25; ALCH: 6.41.
Regarding AGKI, the enrichment ratio was at most 0.25.
For WLNM, the enrichment ratio was at most 0.25.
The figure for RHNP is at most 0.25; for FGAD it is at most 0.25; for FPLV it is at most 0.25.
Next, IAFC: at most 0.25; EFMP: at most 0.25.
With IPIM, the enrichment ratio is 2.05.
The figure for FCTK is at most 0.25; for NALT it is at most 0.25.
The figure for WMYM is at most 0.25; for GEHV it is at most 0.25; for DLQP it is at most 0.25.
Next, RLES: at most 0.25.
Turning to FWIP, the enrichment ratio was at most 0.25.
As for KWFH, the enrichment ratio is at most 0.25.
Next, MSHL: 8.24.
For the variant IVPH, the enrichment ratio is at most 0.25.
Regarding FAHP, the enrichment ratio is at most 0.25.
Take MTGA: the enrichment ratio was at most 0.25.
HRWN: the enrichment ratio was at most 0.25.
On to KMVI, for which the enrichment ratio was at most 0.25.
For the variant IHSP, the enrichment ratio was at most 0.25.
Next, FGMW: at most 0.25.
As to KSRH, the enrichment ratio is at most 0.25.
On to IYCK, for which the enrichment ratio is at most 0.25.
Next, IWQV: at most 0.25.
Next, GDHD: at most 0.25.
Next, NGFM: at most 0.25; LVTP: at most 0.25.
In the case of MTNH, the enrichment ratio was at most 0.25.
Next, PFPN: at most 0.25.
Next, PHLI: at most 0.25; VHSN: at most 0.25.
Next, FCQM: at most 0.25; FPIN: at most 0.25; LPVL: at most 0.25.
Consider FTGY, for which the enrichment ratio is at most 0.25.
As for MGAG, the enrichment ratio was 1.81.
With RCCM, the enrichment ratio was at most 0.25.
For ATSI, the enrichment ratio is 6.47.
Next, LRQC: at most 0.25; FHYH: at most 0.25.
RDSN: the enrichment ratio is at most 0.25.
The figure for IHKP is at most 0.25.
Next, TYQC: at most 0.25; MKHN: at most 0.25.
Next, YFWK: at most 0.25; IIKF: at most 0.25; GMPA: at most 0.25.
For the variant KEAE, the enrichment ratio was at most 0.25.
For the variant DNRT, the enrichment ratio is at most 0.25.
Take VYEL: the enrichment ratio is at most 0.25.
In the case of TVAS, the enrichment ratio worked out at 14.3.
For WTWA, the enrichment ratio was at most 0.25.
On to CNVL, for which the enrichment ratio stood at 0.317.
AGKY: the enrichment ratio was at most 0.25.
As to EDRK, the enrichment ratio is at most 0.25.
Next, ISFD: at most 0.25.
The figure for NDVA is at most 0.25.
As for QKGG, the enrichment ratio is at most 0.25.
Regarding GYFN, the enrichment ratio is at most 0.25.
On to STPW, for which the enrichment ratio is at most 0.25.
Next, TFGW: at most 0.25.
In the case of TCNV, the enrichment ratio was 16.2.
Next, KSRP: at most 0.25; NTEK: at most 0.25.
For the variant GMWT, the enrichment ratio is at most 0.25.
The figure for FRWH is at most 0.25.
Regarding YFMK, the enrichment ratio was at most 0.25.
Turning to EMNL, the enrichment ratio was at most 0.25.
The figure for RDRW is at most 0.25.
On to PTYN, for which the enrichment ratio is at most 0.25.
Turning to KVQR, the enrichment ratio was at most 0.25.
Regarding GLIW, the enrichment ratio was at most 0.25.
Next, FPLF: at most 0.25.
With MVYW, the enrichment ratio worked out at 0.543.
Consider GVVP, for which the enrichment ratio is at most 0.25.
In the case of VWRN, the enrichment ratio is at most 0.25.
The figure for WMTV is at most 0.25.
Turning to PEHE, the enrichment ratio is at most 0.25.
Consider WTYC, for which the enrichment ratio was at most 0.25.
As for HFPC, the enrichment ratio was at most 0.25.
With MRSP, the enrichment ratio was at most 0.25.
Turning to DPHD, the enrichment ratio is at most 0.25.
The figure for FTCV is 0.528; for PVGH it is at most 0.25.
Turning to KYYP, the enrichment ratio is at most 0.25.
Next, IHQS: at most 0.25; GLDH: 0.852; YWRV: at most 0.25.
Regarding SMQA, the enrichment ratio was at most 0.25.
Next, GHHS: at most 0.25.
Next, PTLG: at most 0.25.
On to ARSF, for which the enrichment ratio was at most 0.25.
For KDKV, the enrichment ratio was at most 0.25.
Take DDTL: the enrichment ratio came to 1.57.
As to YDVY, the enrichment ratio was at most 0.25.
Next, MNMQ: at most 0.25.
Next, ISYL: 0.331.
As to VMPA, the enrichment ratio was at most 0.25.
On to DCDE, for which the enrichment ratio was at most 0.25.
The figure for IEFN is at most 0.25; for FCLY it is 0.728.
AIWK: the enrichment ratio is at most 0.25.
Regarding WASL, the enrichment ratio was at most 0.25.
As for KMTV, the enrichment ratio was at most 0.25.
Turning to WNCP, the enrichment ratio is at most 0.25.
The figure for NKCH is at most 0.25; for MHRH it is at most 0.25.
Consider YMPQ, for which the enrichment ratio is at most 0.25.
Next, TTAR: 0.591; RWAE: at most 0.25.
The figure for ILNK is at most 0.25.
Regarding NMWS, the enrichment ratio was at most 0.25.
The figure for LIGQ is at most 0.25.
The figure for TWNV is at most 0.25; for FSFP it is at most 0.25; for YPLC it is at most 0.25.
Turning to IFWH, the enrichment ratio was at most 0.25.
VHAS: the enrichment ratio was at most 0.25.
On to HNPE, for which the enrichment ratio was at most 0.25.
Next, YVPL: at most 0.25; TYAC: 0.469.
The figure for DVTG is at most 0.25; for FISG it is at most 0.25; for FDYN it is at most 0.25.
The figure for RKWN is at most 0.25.
Consider QINP, for which the enrichment ratio is at most 0.25.
The figure for QCLL is 2.35; for FVLA it is at most 0.25; for GEVQ it is at most 0.25.
The figure for KPWY is at most 0.25.
The figure for HMYN is at most 0.25; for YSES it is at most 0.25.
